This is one part of the list.

To fix the notation:
B1: 31381247_31381367_1419_CDS_ENSG00000196792_ENST00000355683|human|control|control (ssRNA)
RNA: GGGAGUUCUACAGUCCGACGAUCUUUCAGGGUAUGGUCCUCAGAAGCAGUAACCAGCACAGGUUCUACAGGAUGAAAAGCUAAUGCCCGUACUCCAUCAAAAUGGCUACGUAGUGUAUACUUGGGAUUCCAUGUCUUUCGAAACAACAGAGGAUUGAGCAUCA
B2: chr12:93046693:93046694:-_ENSMUSG00000020964_ENSMUST00000021347|mus_hu|FALSE|FALSE (ssRNA)
RNA: GGGAGUUCUACAGUCCGACGAUCCUACCUUUCACAGAUACGCUUUCAUACAUAUGGCUCUCUUGGUGACUAACUCUUCGAAUUUGGAAGCAAUUAUCUGGGAGGAAAGUUUUGCUUACCAGGUUUCCCAUAAUUCUCUAAACACAACAGAGGAUUGAGCAUCA
B3: 246755086_246755206_551_CDS_ENSG00000162852_ENST00000366513|human|control|control (ssRNA)
RNA: GGGAGUUCUACAGUCCGACGAUCUGGACUUCUUUUUCCAGGAAUUUUUUUGUCCUUUCCCAAGAAGGCCUGUUCAUCUCUGGAGGCUUCACAAAGGGUGUUUUGCAAGUUCUCACCUGCAGCCACCUCGCAGCUCAAUGUGCACAACAGAGGAUUGAGCAUCA
B4: chr4:156296975:156296976:-_ENSG00000164114_ENST00000311277|hu_hu|FALSE|FALSE (ssRNA)
RNA: GGGAGUUCUACAGUCCGACGAUCUCCUGGAAAGUAGUUCUUUUGGUAACUUUUGGACUCUUUGUAUAUGCCAAAGUGGUGCUAAAAACUUCAUCAGACAUAGUGUAUUUUUUCUCGUUACCUUUAUAAAAUAGCUAAUUAUUACAACAGAGGAUUGAGCAUCA
B5: chr3:103125490:103125491:+_ENSMUSG00000033014_ENSMUST00000106860|mus_mus|motif|central (ssRNA)
RNA: GGGAGUUCUACAGUCCGACGAUCAAGAAGCUUAGCCAACAGAUUUUCAAUUGCACCUUUCUGAUUUUGAAAAGCCUCUUCGGAAAACUGAUACCUAUGUUCUUUGUGCUCCAAAAGUUGACAGUCUCUACACGUCAAUCUAUCCAACAGAGGAUUGAGCAUCA
B6: 83926487_83926607_3978_CDS_ENSMUSG00000030016_ENSMUST00000032088|mouse|control|control (ssRNA)
RNA: GGGAGUUCUACAGUCCGACGAUCCCUUUCUUCUAUGAAGACACUGUCAGAUACUGCUAAUUCAGUUUCAGGGUUUGUAACUUCUGCCUCUUCCUUUUCAAAGUCACUGGUGUACAUCUGCUGGUUUAAAGCAGACUCAUCUAUCAACAGAGGAUUGAGCAUCA
B7: chr7:141445308:141445309:+_ENSG00000106028_ENST00000265304|hu_hu|hu_hu_hu_mus_False|88_98 (ssRNA)
RNA: GGGAGUUCUACAGUCCGACGAUCUAUGAUUGUUGUUGCUUGUCGCCUCACAUUAUUUUUAUCCAUGUACUCGCCAUAGUCCACUUUCCCUUCCACAAAUAUACGAGCCCCCUUUUUCACAUACUGAUAUGCCACAUCUCUGAGCAACAGAGGAUUGAGCAUCA
B8: chr9:21312366:21312367:-_ENSMUSG00000032180_ENSMUST00000034698|mus_hu|motif|central (ssRNA)
RNA: GGGAGUUCUACAGUCCGACGAUCCUUGUUAGGCCCUGCCCCGCACCAGGCAACGCUAACACAGGAUGGGAGGCUUAGGCGGAGGCACAUUUACAGUAGAGGGGCCAGGAAAUCCGAGGCUCACGUUCCAACGCUGCAGUGCCCCAACAGAGGAUUGAGCAUCA
B9: chr17:65740002:65740003:+_ENSG00000130935_ENST00000581375|hu_hu|hu_hu_hu_mus_False|48_108 (ssRNA)
RNA: GGGAGUUCUACAGUCCGACGAUCAACCCGUUCUUGCUCCCUGGACGAACAGGAAGAUUCAUAUUAAAAAAAAUAUAUAUCCAUCAAGGAGAAUUGAGUGGCCACACCUUUACUCCCAGCACUUUGGGAGGUGGAUCUCUGAGUCAACAGAGGAUUGAGCAUCA
B10: chr8:94190273:94190274:+_ENSMUSG00000055932_ENSMUST00000069718|mus_hu|FALSE|FALSE (ssRNA)
RNA: GGGAGUUCUACAGUCCGACGAUCGUUUUGCUUCCAGAAGCUGACCUCUGAGUUCUGAAACGAUGUCUGUGAGGUCAAACGGCAGAGGCAUCGAAGCAUCAUCCUUUUCCCAGUAUGGCCGACAUUCUGGCUUCUGAUCAGCAGCAACAGAGGAUUGAGCAUCA
B11: chr4:48381769:48381770:+_ENSG00000109171_ENST00000512093|hu_hu|FALSE|FALSE (ssRNA)
RNA: GGGAGUUCUACAGUCCGACGAUCCUUAUAAUUGGAUCCAAUUGAAUCUUCAUCUAAUUCUGAAGCACUUAACUCACUAUCUAUAGAGGACUGAGGACUGAGUGGAGGAUUUCUGUCUGAGCUUUUCAAGUUACCUGAAUUUCCCAACAGAGGAUUGAGCAUCA
B12: chr1:225611761:225611762:-_ENSG00000143815_ENST00000272163|hu_mus|hu_hu_hu_mus_True|18_108 (ssRNA)
RNA: GGGAGUUCUACAGUCCGACGAUCCCAGGCCAUCGACCUCUGACCACUUCACCCUCAACAAACUUCCUACUUGGCAUUUUCUAAAAUUAGUCUGGCCGCGCUCCGGCGGGAACUCCAGACGGCUCCCGACAGUCACCAGCAGCCCAACAGAGGAUUGAGCAUCA
B13: chr19:36179134:36179135:+_ENSMUSG00000024800_ENSMUST00000025714|mus_hu|FALSE|FALSE (ssRNA)
RNA: GGGAGUUCUACAGUCCGACGAUCUUGUUUAUCACUUACACAAAGGAGAAAUAACCAGUCUUUCUCUCUUAAAGUACAUCUAAAUUCAUUAAGCUGGCAGCCUUUUAAAAAGAUGCUUCACUAGGUUUCGUUUGUUGUUUUAAUCAACAGAGGAUUGAGCAUCA
B14: 138451259_138451379_2310_CDS_ENSG00000189184_ENST00000344876|human|control|control (ssRNA)
RNA: GGGAGUUCUACAGUCCGACGAUCUUUGUCCUGAAUGAUAACUGACAGCUCCCAUUCUGUGUAGGGAACAGAAUCCAUGCUAACGUUGGUAUGGAUGUCACAUGAUCGUGGAUCAAUUAUGAAGAUAUUCUCCUCAUUACCUGCCAACAGAGGAUUGAGCAUCA

The assay deals with T1, UNK ZnF1-3 (human, UniProt Q9C0B0 31-174).
T1 sequence: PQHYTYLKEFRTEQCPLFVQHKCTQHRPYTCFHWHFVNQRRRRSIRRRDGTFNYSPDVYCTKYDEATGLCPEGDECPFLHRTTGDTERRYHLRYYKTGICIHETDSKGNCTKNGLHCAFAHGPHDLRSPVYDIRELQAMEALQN
Kind of assay: nsRBNS (natural sequence RNA bind-n-seq); RBNS binding buffer (assumed for nsRBNS): 25 mM Tris pH 7.5, 150 mM KCl, 3 mM MgCl2, 0.01% Triton X-100, 500 ug/ml BSA, 20 U/ml SUPERase-In, 4 C; UNK is unkempt and MSI1 is Musashi-1; names of the RNAs are library labels; protein concentration not given here; high values mean tight binding.
Regarding B1, the binding signal was 0.912 enrichment R. Then B2, with 1.15 enrichment R; and B3, with 0.491 enrichment R; and B4, with 0.766 enrichment R. In the case of B5 it was 1.12 enrichment R; in that of B6, 0.511 enrichment R. Then B7, with 0.68 enrichment R; and B8, with 0.723 enrichment R; and B9, with 1.58 enrichment R. In turn, B10 had a binding signal of 0.847 enrichment R. In the case of B11 it was 2.65 enrichment R; in that of B12, 1.37 enrichment R; in that of B13, 0.979 enrichment R. In the case of B14 it was 0.39 enrichment R.
